# Measurements as given in PubChem BioAssay (Tox21).
# The shares of active, inactive and inconclusive entries below differ from those in the screen. Potencies of inconclusive entries are left out as doubtful fits. Calls of active or inactive are those of the source. Unless noted, calls come from the whole dose curve; as a rule, active = well fitted cell-killing curve with a large enough effect in the repeat runs; inconclusive = weak or mixed curves, or effect the other way; inactive = no such curve, though single readings can be large or run the other way.
# How the values were obtained:
# [1] = qHTS assay to identify small molecule agonists of the farnesoid-X-receptor (FXR) signaling pathway - cell viability counter screen (AID 743218); details: FXR-bla HEK293T viability, CellTiter-Glo luminescence, 16 h; viability change, negative = cytotoxic: at 62.6 µM (top of the series) unless noted; note: nearly all actives have a fitted effect of over 45% in size
# How it was run: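 Viability of FXR-bla HEK 293T cells is measured by ATP-based CellTiter-Glo luminescence following 16 h compound treatment at 37 C and a prior 2 h room-temperature beta-lactamase substrate step.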
# [2] = qHTS assay to identify small molecule antagonists of the farnesoid-X-receptor (FXR) signaling pathway - cell viability counter screen (AID 743221; active = well fitted cell-killing curve with a large enough effect in the repeat runs, not every such curve was filed as active; inconclusive = weak or mixed curves, or effect the other way; inactive = no such curve, though single readings can be large or run the other way; note: nearly all actives have a fitted effect of over 50% in size); details: FXR-bla HEK293T viability, CellTiter-Glo luminescence, 16 h; activity change, negative = cytotoxicity: at 62.6 µM (top of the series) unless noted
# How it was run: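 CellTiter-Glo, 30 min RT, luminescence; same wells as the LiveBLAzer FRET read. Cells: FXR-UAS-bla HEK 293T. Treatment: compound with chenodeoxycholic acid 50 uM final, 16 h at 37 C.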
# [3] = molecular target: Vitamin D3 receptor (Homo sapiens) (UniProt P11473); assay: qHTS assay to identify small molecule agonists of the vitamin D receptor (VDR) signaling pathway (AID 743222; calls by dose curve); details: HEK293T VDR-UAS-bla, beta-lactamase FRET ratio, 16 h; activation: at 63.5 µM (top of the series) unless noted
# How it was run: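 Fluorescence from cleaved LiveBLAzer B/G FRET substrate served as readout. VDR-bla cells had been treated 16 h at 37C with test compounds in DMSO, following a 4 h settling period, and substrate was loaded for 2 h at RT.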
# [4] = molecular target: Vitamin D3 receptor (Homo sapiens) (UniProt P11473); assay: qHTS assay to identify small molecule antagonists of the vitamin D receptor (VDR) signaling pathway (AID 743223; active = well fitted inhibition curve with a large enough effect in the signal ratio in the repeat runs, not every such curve was filed as active; inconclusive = weak or mixed curves, or effect the other way; inactive = no such curve, though single readings can be large or run the other way; the % refers to the signal ratio; for activity change, negative = inhibition: % is set by controls: 0 for no effect and ±100 for the full control effect); details: VDR-UAS-bla HEK293T, beta-lactamase FRET ratio, 16 h; activity change, negative = inhibition: at 61 µM (top of the series) unless noted
# How it was run: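 After VDR-bla cells are plated and left 4 h at 37C, DMSO-dissolved compounds and 3 nM (final) calcitriol agonist are added. Incubation continues 16 h at 37C; FRET beta-lactamase substrate then develops 2 h at room temperature.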
# [5] = qHTS assay to identify small molecule antagonists of the vitamin D receptor (VDR) signaling pathway - cell viability counter screen (AID 743225); details: VDR-bla HEK293T viability, CellTiter-Glo luminescence, 16 h; viability change, negative = cytotoxic: at 61 µM (top of the series); note: nearly all actives have a fitted effect of over 50% in size; for viability change, negative = cytotoxic: % is set by controls: 0 for no effect and ±100 for the full control effect
# How it was run: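 Cytotoxicity toward the VDR-bla HEK 293T line was scored by ATP-based CellTiter-Glo luminescence, read in the wells already used for the beta-lactamase readout after 16 h compound treatment under 3 nM 1-alpha,25-dihydroxyvitamin D3 stimulation.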
# [6] = qHTS assay to identify small molecule agonists of the NFkB signaling pathway (AID 1159509; active = well fitted curve in the direction sought with a large enough effect in the signal ratio in the repeat runs, not every such curve was filed as active; inconclusive = weak or mixed curves, or a change in a side signal; inactive = no such curve, though single readings can be large or run the other way; the % refers to the signal ratio); details: NFkB-bla ME-180 cells, beta-lactamase FRET ratio, 5 h; activation: at 61 µM (top of the series) unless noted
# How it was run: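 Pathway activation was measured in ME-180 cells stably expressing beta-lactamase under NF-kB response element control. Substrate cleavage was read as the 460/530 nm emission shift after 5 hr compound incubation.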
# [7] = qHTS assay to identify small molecule agonists of the NFkB signaling pathway - cell viability counter screen (AID 1159515; calls by dose curve; note: nearly all actives have a fitted effect of over 55% in size); details: NFkB-bla ME-180 viability, CellTiter-Glo luminescence, 5 h; series mostly up to 61 µM
# How it was run: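 Parallel cytotoxicity counter screen in ME-180 cells carrying an NFkB-response-element beta-lactamase reporter, 2,000 cells/well. Compound exposure lasted 5 hr at 37 C, 5% CO2. Cell viability was quantified by CellTiter-Glo luminescence.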
# [8] = qHTS assay to identify small molecule agonists of the endoplasmic reticulum stress response signaling pathway (AID 1159516; active = well fitted activation curve with a large enough effect in the signal ratio in the repeat runs, not every such curve was filed as active; inconclusive = weak or mixed curves, or effect the other way; the % refers to the signal ratio; for activation: % is set by controls: 0 for no effect and ±100 for the full control effect); details: ESRE-bla HeLa, ER stress beta-lactamase reporter, 5 h; activation: at 61 µM (top of the series) unless noted
# How it was run: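 Using a HeLa line with an ESRE-driven beta-lactamase gene, agonist activity was measured by FRET substrate fluorescence (460 and 530 nm emission) after cells were treated with compounds for 5 hr at 37 C and 5% CO2.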
# [9] = qHTS assay to identify small molecule agonists of the vitamin D receptor (VDR) signaling pathway - cell viability counter screen (AID 743224); details: VDR-bla HEK293T viability, CellTiter-Glo luminescence, 16 h; series mostly up to 62.6 µM; note: nearly all actives have a fitted effect of over 50% in size
# How it was run: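 Compounds were pin-transferred onto VDR-bla cells plated 4 h earlier; following 16 h incubation at 37C, cell viability was quantified by CellTiter-Glo luminescence after 30 min at room temperature.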
# [10] = molecular target: Bile acid receptor (Homo sapiens) (UniProt Q96RI1); assay: qHTS assay to identify small molecule agonists of the farnesoid-X-receptor (FXR) signaling pathway (AID 743220; active = well fitted activation curve with a large enough effect in the signal ratio in the repeat runs, not every such curve was filed as active; inconclusive = weak or mixed curves, or effect the other way; the % refers to the signal ratio); details: HEK293T FXR-UAS-bla, beta-lactamase FRET ratio, 16 h; activation: at 62.6 µM (top of the series) unless noted
# How it was run: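 FXR-UAS-bla HEK 293T cells carrying a UAS-driven beta-lactamase reporter were plated for 5 h at 37C/5% CO2, then exposed to DMSO-dissolved Tox21 10K compounds for 16 h at 37C. A LiveBLAzer B/G FRET substrate was loaded for 2 h at room temperature before fluorescence reading.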
# Potency is the fitted concentration of half-maximal effect; tags give direction and shape of the fitted curve or compound fluorescence and quenching.
# Sequence of UniProt P11473 (P11473 whole entry, looked up): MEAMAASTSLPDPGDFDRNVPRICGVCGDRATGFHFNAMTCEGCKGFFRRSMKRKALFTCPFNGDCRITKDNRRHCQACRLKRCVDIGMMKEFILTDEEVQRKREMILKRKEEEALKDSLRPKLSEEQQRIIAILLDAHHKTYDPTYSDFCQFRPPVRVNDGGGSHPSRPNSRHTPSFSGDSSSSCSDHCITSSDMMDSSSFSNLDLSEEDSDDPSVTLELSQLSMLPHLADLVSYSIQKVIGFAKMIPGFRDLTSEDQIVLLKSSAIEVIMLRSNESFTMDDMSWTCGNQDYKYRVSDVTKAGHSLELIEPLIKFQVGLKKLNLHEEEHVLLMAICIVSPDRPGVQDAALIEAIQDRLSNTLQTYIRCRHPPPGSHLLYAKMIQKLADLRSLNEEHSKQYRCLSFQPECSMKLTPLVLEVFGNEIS
# Sequence of UniProt Q96RI1 (Q96RI1 whole entry, looked up): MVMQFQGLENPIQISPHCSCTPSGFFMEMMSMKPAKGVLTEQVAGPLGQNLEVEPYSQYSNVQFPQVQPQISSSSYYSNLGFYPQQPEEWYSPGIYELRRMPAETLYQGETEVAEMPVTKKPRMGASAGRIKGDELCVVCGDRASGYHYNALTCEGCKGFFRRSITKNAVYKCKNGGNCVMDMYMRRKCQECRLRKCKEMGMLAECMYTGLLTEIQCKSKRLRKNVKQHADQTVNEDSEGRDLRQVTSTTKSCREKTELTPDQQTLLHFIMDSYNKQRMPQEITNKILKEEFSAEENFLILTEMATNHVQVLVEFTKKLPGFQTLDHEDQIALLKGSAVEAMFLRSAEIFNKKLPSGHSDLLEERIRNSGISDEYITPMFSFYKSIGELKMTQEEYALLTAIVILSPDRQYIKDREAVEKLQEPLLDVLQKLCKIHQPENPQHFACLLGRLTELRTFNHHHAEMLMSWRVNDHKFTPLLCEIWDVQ
Structure (SMILES),Potency [1],Potency [2],Potency [3],Potency [4],Potency [5],Potency [6],Potency [7],Potency [8],Potency [9],activation [8],"activity change, negative = inhibition [4]",Potency [10]
C[C@@H]1O[C@@H](O[C@@H]2C=C3CC[C@@H]4[C@H](CC[C@]5(C)[C@@H](c6ccc(=O)oc6)CC[C@]45O)[C@@]3(C)CC2)[C@H](O)[C@H](O)[C@H]1O,"inconclusive [cytotoxic, full curve]",active: 0.0106 µM,"inconclusive [rising, partial curve]","inconclusive [rising, full curve]",active: 0.0134 µM,"inconclusive [rising, full curve, poor fit]","inconclusive [cytotoxic, full curve]","inconclusive [rising, full curve]",,,,
CC(Cc1ccc(C(C)(C)C)cc1)CN1C[C@@H](C)O[C@@H](C)C1 (stereo partly specified),"inconclusive [cytotoxic, partial curve, poor fit]",,,,,inconclusive,"inconclusive [cytotoxic, single point]","inconclusive [falling, single point]","inconclusive [cytotoxic, partial curve, poor fit]",,,
Nc1nc(N)nc(NC2CC2)n1,,"inconclusive [rising, partial curve, poor fit]",,,,"inconclusive [falling, single point]","inconclusive [cytotoxic, partial curve, poor fit]",,,inconclusive: -11.5%,,
O=[N+]([O-])c1cc([N+](=O)[O-])c2ccccc2c1,"inconclusive [rising, full curve, poor fit]",,"inconclusive [rising, single point]",,inactive,"inconclusive [falling, single point]","inconclusive [rising, partial curve, poor fit]",,,inconclusive: -0.883%,inconclusive: 5.35%,
Cn1cc(C2=C(c3cn(C4CCN(Cc5ccccn5)CC4)c4ccccc34)C(=O)NC2=O)c2ccccc21,active: 16.8 µM,,"inconclusive [inhibitor, full curve]",,,"inconclusive [falling, partial curve]","inconclusive [cytotoxic, partial curve]","inconclusive [inhibitor, partial curve, poor fit]",,,,
CC(=O)C(Cl)(Cl)Cl,,,"inconclusive [rising, partial curve, poor fit]","inconclusive [rising, partial curve, poor fit]","inconclusive [cytotoxic, full curve, poor fit]","inconclusive [falling, partial curve]","inconclusive [rising, partial curve, poor fit]","inconclusive [falling, single point]","inconclusive [cytotoxic, full curve]",,,"inconclusive [activator, partial curve]"
O=C(CCCN1CCC2(CC1)C(=O)NCN2c1ccccc1)c1ccc(F)cc1,"inconclusive [cytotoxic, partial curve]",,,,"inconclusive [rising, full curve, poor fit]","inconclusive [activator, partial curve, poor fit]","inconclusive [cytotoxic, partial curve, poor fit]","inconclusive [activator, full curve]","inconclusive [rising, partial curve, poor fit]",,,
O=C(Nc1ccc2[nH]ccc2c1)c1cc2cc(F)ccc2n1Cc1cccc(F)c1,active: 49 µM,"inconclusive [falling, single point]",,active: 43.6 µM,active: 43.6 µM,"inconclusive [falling, partial curve]","inconclusive [cytotoxic, partial curve, poor fit]",,active: 43.6 µM,inconclusive: -0.358%,,
